In the supplement of paper PMC4604168 (melanoma cell lines):
Some of the results follow. Most values come without repeats; read them as rough.

Each compound was assayed on IST-MEL1 (assay: cell count relative to DMSO control; melanoma cells; higher = more viable cells). Conditions: library dose: standard library concentration; 72 h.
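Note: cells treated in 1,536-well plates, then fixed and DAPI-stained, with nuclei counted from automated high-throughput microscope images.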

SMILES	cell count
CCCCCCCCc1ccc(CCC(N)(CO)CO)cc1 [fingolimod] + O=S(=O)(c1ccccc1)N(CC(F)(F)F)c1ccc(C(O)(C(F)(F)F)C(F)(F)F)cc1 [T0901317] (first compound 10 µM, partner dose 7 µM)	2.28%
CCCCCCCCc1ccc(CCC(N)(CO)CO)cc1 [fingolimod] + c1cc(-c2cnn3cc(-c4ccc(OCCN5CCCCC5)cc4)cnc23)ccn1 [Dorsomorphin] (first compound 10 µM, partner dose 2 µM)	16.7%
CC(C)(C)c1cnc(CSc2cnc(NC(=O)C3CCNCC3)s2)o1 + NCC(=O)Nc1ccc(-n2nc(C(F)(F)F)cc2-c2ccc3c(ccc4ccccc43)c2)cc1 [OSU03012] (first compound 0.05 µM, partner dose 5 µM)	81.3%
NC(=O)c1ccc(N(C(N)=O)c2c(F)cccc2F)nc1-c1ccc(F)cc1F + O=C(Nc1ccccc1)c1cc([N+](=O)[O-])ccc1Cl [GW9662] (first compound 2 µM, partner dose 10 µM)	87.7%
CCCCCCCCc1ccc(CCC(N)(CO)CO)cc1 [fingolimod] + N#Cc1c(O)c2c(-c3ccc(-c4ccccc4O)cc3)csc2[nH]c1=O [A769662] (first compound 10 µM, partner dose 10 µM)	8.29%
CCCCCCCCc1ccc(CCC(N)(CO)CO)cc1 [fingolimod] + CC(C)CCN1c2nc(Nc3cc(F)c(O)c(F)c3)ncc2N(C)C(=O)C1C [BID1870] (first compound 10 µM, partner dose 1 µM)	63.8%
NC(=O)c1ccc(N(C(N)=O)c2c(F)cccc2F)nc1-c1ccc(F)cc1F + N#Cc1c(O)c2c(-c3ccc(-c4ccccc4O)cc3)csc2[nH]c1=O [A769662] (first compound 2 µM, partner dose 10 µM)	98.8%
CCCCCCCCc1ccc(CCC(N)(CO)CO)cc1 [fingolimod] + O=C(O)c1ccc(-c2c[nH]c3ncc(-c4ccccc4)cc23)cc1C1CCCC1 [GSK650394] (first compound 10 µM, partner dose 0.8 µM)	3.93%
CCCCCCCCc1ccc(CCC(N)(CO)CO)cc1 [fingolimod] + CCN(CC)CCCCNc1ncc2cc(-c3cc(OC)cc(OC)c3)c(NC(=O)NC(C)(C)C)nc2n1 [PD173074] (first compound 10 µM, partner dose 0.5 µM)	18.5%
NC(=O)c1ccc(N(C(N)=O)c2c(F)cccc2F)nc1-c1ccc(F)cc1F + CCCCCCCCCCCC1=C(O)C(=O)C=C(O)C1=O [Embelin] (first compound 2 µM, partner dose 6 µM)	68.9%
CCCCCCCCc1ccc(CCC(N)(CO)CO)cc1 [fingolimod] + O=C(Nc1ccccc1)c1cc([N+](=O)[O-])ccc1Cl [GW9662] (first compound 10 µM, partner dose 10 µM)	9.08%
NC(=O)c1ccc(N(C(N)=O)c2c(F)cccc2F)nc1-c1ccc(F)cc1F + Cn1cc(/C=C2\C(=O)Nc3cccnc32)c2ccccc21 [GW441756] (first compound 2 µM, partner dose 2 µM)	87%
